Read counts are not given, so values of variants with three or more changes are uncertain.
B1: CPEB3 Ribozyme (parent)
chain: UAACAGGGGGCCACAGCAGAAGCGUUCACGUCGCAGCCCCUGUCAGAUUCUGGUGAAUCUGCGAAUUCUGCUGUAUAUCUC

Variants of: B1
Assay: self-cleavage, relative activity (ratio to wild type); higher = more cleavage; in vitro, sequencing
Outline: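 Libraries of CPEB3 self-cleaving ribozyme mutants came from rounds of error-prone PCR and carried barcodes, which DNA sequencing matched to variants. In vitro transcription used T7 RNA polymerase at 37°C for 5 hours, with a further 15 min in DNase I before EDTA stopped the reaction; the ribozymes cleaved during both steps. The RNA was reverse transcribed with template switching and sequenced on Illumina. Relative activity is the cleaved/total read fraction of a variant divided by that of the unmutated ribozyme, averaged over three batches with at least 5 reads.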

For UAACGGGGGGCCACAGCAGAAGCGCUCACGUCGCAGCCCCUGUCAGAUUCUGGUGAAUCUGCGGGUUCUGCUGUAUAUCUC, which self-cleavage is on record?
The self-cleavage was 0.27.

For UAACGGGGGGCCACAGCAGAAGCGCUCACGUUGCAGCCCCUGUCGGAUUCUGGUGAAUCUGCGAAUUCUGCUGUAUAUCUC, which self-cleavage is on record?
Its self-cleavage is 0.1.

For UAACGGGGGGCCACAGCAGAAGCGCUCACGUCCCAGCCCCUGUCAGAUUCUGGUGAGUCUGCGAAUUCUGCUGUAUACCUC, which self-cleavage is on record?
The self-cleavage was 0.06.

Which self-cleavage does the source give for UAACGGGGGGCCACAGCAGAAGCGCUCACGUCGCAGCCCCUGUCAGAUUCUAGUGAAUCUGCGAAUUCUGCUGUAUAUCUC here?
The self-cleavage was 0.38.

With UAACGGGGGGCCACAGCAGAAGCGCUCACGUCGCAGCCCCUGUCAGAUUCUAGUGAAUCUGCGAAUUCUGCUGUAUAUCAC as the variant, how does the self-cleavage read?
Its self-cleavage is 0.09.

For UAACGGGGGGCCACAGCAGAAGCGCUCACGUCGCAGCCCCUGUCAGAUUCUGGUGAAUCUAUGAAUUCUGCAGUAUAUCUC, which self-cleavage is on record?
Its self-cleavage is 0.07.

For UAACGGGGGGCCACAGCAGAAGCGCCCACGUCGCAGCCCCUGUCAGAUUCUGGUGUAUCUGCGAACUCUGCUGUAUAUCUC, which self-cleavage is on record?
The self-cleavage was 0.22.

With UAACGGGGGGCCACAGCAGAAGCGCCCACGUCGCAGCCCCUGUCAGAUUCUGGUGAAUCUGCGAAUUCUGCCGUAUAUCUC as the variant, how does the self-cleavage read?
The self-cleavage was 0.25.

With UAACGGGGGGCCACAGCAGAAGCGCCCACGUCGCAGCCCCUGUCAGAUUCUGGUGAAUCUGCGAAUUCUGCUGUAUACCUC as the variant, how does the self-cleavage read?
Its self-cleavage is 0.8.

For UAACGGGGGGCCACAGCAGAAGCGCGCACGUCGCUGCCCUUGUCAGAUACUGGUGAAUCUGCGAAUUCUGCUGUAUAUCUC, which self-cleavage is on record?
Its self-cleavage is 0.04.

For UAACGGGGGGCCACAGCAGAAGCGCUCACGCCGCGGCCCCUGUCAGAUUCUGGUGAAUCUGCGAAUUCUGCUGUAUAUCUC, which self-cleavage is on record?
Its self-cleavage is 0.53.

For UAACGGGGGGCCACAGCAGAAGCGCUCACGCCGCAGCCCCUGUCUGAUUCUGGUGAAUCUGCGUAUUCUGCUGUAUAUCUC, which self-cleavage is on record?
The self-cleavage was 0.07.

For UAACGGGGGGCCACAGCAGAAGCGCUCACGCCGCAGCCCCUGACAGAUUCUGGUGAAUCUGCGAAUUCUGCUGUAUCUCUC, which self-cleavage is on record?
The self-cleavage was 0.11.

With UAACGGGGGGCCACAGCAGAAGCGCUCACGGCGCAGCUCCAGUCAGAUUCUGGUGGAUCUGCGAGUUCUGCUGUAUAUCUC as the variant, how does the self-cleavage read?
The self-cleavage was 0.03.

Which self-cleavage does the source give for UAACGGGGGGCCACAGCAGAAGCGCUCACGUCGCAGCCCCAGUCAGAUUCUGGUGAAUCUGCGAAUUCUGCUGUAUAUCUC here?
The self-cleavage was 0.44.

For UAACGGGGGGCCACAGCAGAAGCGCUCACGUCGCAGCCCCAGUCAGAUUCUAGUGAAUCUGCGAAUUCUGCUGUAUAUCUC, which self-cleavage is on record?
The self-cleavage was 0.45.

With UAACGGGGGGCCACAGCAGAAGCGCUCACGUCGCAGCCCCAGUCAGAUUCUGGUGAAUCUGCGAAUCCUGCUGUAUAUCUC as the variant, how does the self-cleavage read?
The self-cleavage was 0.17.

For UAACGGGGGGCCACAGCAGAAGCGCUCACGUCGCAGCCCCUGACAGAUUCUGGUGAAUCUGCGAAUUCUGCUGUAUAUCUC, which self-cleavage is on record?
The self-cleavage was 0.

Which self-cleavage does the source give for UAACGGGGGGCCACAGCAGAAGCGCUCACGUCGCAGCCCCUGCCAGAUUCUGGUGAAUCUGCGAAUUCUGCUGUAUAUCUC here?
Its self-cleavage is 0.53.

Which self-cleavage does the source give for UAACGGGGGGCCACAGCAGAAGCGCUCACGUCGCAGCCCCUGUCAGAUUCCGGUGAAUCUGCGAAUUCUGCUGUAUAUCCC here?
The self-cleavage was 0.15.

Which self-cleavage does the source give for UAACGGGGGGCCACAGCAGAAGCGCUCACGUCGCAGCCCCUGUCAGAUUCUGGUGAAUCUGCGAAUUCGGCCGUAUAUCUC here?
Its self-cleavage is 0.37.

Which self-cleavage does the source give for UAACGGGGGGCCACAGCAGAAGCGGUCACAUCGCUGCCCCUGUCAGAUUCUGGUGAACCUGCGAAUUCCGCUGUAUAUCUC here?
The self-cleavage was 0.11.

Which self-cleavage does the source give for UAACGGGGGGCCACAGCAGAAGCGGUCACGUCGCAGCCCCUAUCAGAUCCUGGUGAAUCUGCGAAUUCUGCUGUAUAUCUC here?
The self-cleavage was 0.04.

For UAACGGGGGGCCACAGCAGAAGCGGUCACGUCGCAGCCCCUGUCAGAUUCUGGUGAAUCCGCGAAUUCUGCUGUAUAUCUC, which self-cleavage is on record?
Its self-cleavage is 0.13.

For UAACGGGGGGCCACAGCAGAAGCGGUCACGUCGCAGCCCCUGUCAGAUUCUGGUGAAUCUGCGAAUUCUGCUGUAUAUCCC, which self-cleavage is on record?
Its self-cleavage is 0.23.

With UAACGGGGGGCCACAGCAGAAGCGUACACGUCGCAGCCCCUGUCAGAUUCUGGUGGUUCUGCGAAUUCUGCUGUAUAUCUC as the variant, how does the self-cleavage read?
The self-cleavage was 0.27.

Which self-cleavage does the source give for UAACGGGGGGCCACAGCAGAAGCGUACACGUCGCAGCCCCUGUCAGAUUCUGGUGAAUCUGCGAGUUCUGCUGUAUAUCUC here?
The self-cleavage was 0.32.

For UAACGGGGGGCCACAGCAGAAGCGUACACGUCGCAGCCCCUGUCAGAUUUUGGUGAAUCUGCGAAUUCUGCUGUAUAUCUC, which self-cleavage is on record?
Its self-cleavage is 0.58.

Which self-cleavage does the source give for UAACGGGGGGCCACAGCAGAAGCGUACACGUCGCAGCCCCUGUCAGAUUCUGGUGAAUCUGCGAAUUCUACCGUAUAUCUC here?
Its self-cleavage is 0.07.

With UAACGGGGGGCCACAGCAGAAGCGUACACGUCGCAGCCCCUGUCAGAUUCAGGUGAAUCUGCGAAUUCUGCCGUAUACCUC as the variant, how does the self-cleavage read?
The self-cleavage was 0.29.

For UAACGGGGGGCCACAGCAGAAGCGUACACGUCGCAGCCCCUGUCAGAUUCCGGAGAAUCUGCGAGUUCUGCUGUAUAUCUC, which self-cleavage is on record?
The self-cleavage was 0.07.

For UAACGGGGGGCCACAGCAGAAGCGUACACGUCGCAGCCCCUGUCAGAUUCUGGUGAAUCUGCGAAUUCUGCUGUAUAUCAC, which self-cleavage is on record?
Its self-cleavage is 0.72.

Which self-cleavage does the source give for UAACGGGGGGCCACAGCAGAAGCGUCCGCGUCGCAGCCCCUGACAGAUUCUGGUGAUCCUGCGAAUUCUGCUGUAUAUCUC here?
The self-cleavage was 0.35.

Which self-cleavage does the source give for UAACGGGGGGCCACAGCAGAAGCGUCCUCGUCGCAGCCCCUGUCUGAUUCUGGUGAAUUUGCGUAUUCUGCUGUAUAUCUC here?
The self-cleavage was 0.09.
